The supplement of paper PMC4967469
IC50 is the fitted dose that halves viability relative to control wells, and lower means more sensitive; where the fit passes the top or lowest dose, that dose stands as a limit. The AUC spans the tested range (256-fold, ending at the top dose) of the same fit; the more sensitive the line, the further below 1. For some assays here: An inferred top dose was derived from the fitted curves, not read from the paper.

How the values were obtained:
Test in all cases: Viability of human cancer cell lines after 72 h of drug (GDSC screen)
Trametinib = compound: CC(=O)Nc1cccc(-n2c(=O)n(C3CC3)c(=O)c3c(Nc4ccc(I)cc4F)n(C)c(=O)c(C)c32)c1 [Trametinib]; conditions: top dose 1 µM
Description: (§1)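 Human cancer cell lines in 384-well plates, medium with 10% serum, drug for 72 h over a 256-fold dose range (nine 2-fold or five 4-fold steps up to the top dose). Adherent lines were fixed and stained with the nucleic acid dye Syto60, suspension lines read with resazurin; signal relative to control wells, capped at 0 and 100%. One two-parameter sigmoid per drug and line, fitted in a mixed model over all curves with the slope shared within a line.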

PF-4708671 = compound: CCc1cncnc1N1CCN(Cc2nc3ccc(C(F)(F)F)cc3[nH]2)CC1 [PF-4708671]; conditions: top dose 10 µM; top dose inferred
Description: as §1

KIN001-244 = compound: O=C(NC(COc1ccc2[nH]c(=O)[nH]c2c1)c1ccccc1)c1cccn(Cc2ccc(F)c(F)c2)c1=O [KIN001-244]; conditions: top dose 20 µM; top dose inferred
Description: as §1

I-BET-762 = compound: CCNC(=O)C[C@@H]1N=C(c2ccc(Cl)cc2)c2cc(OC)ccc2-n2c(C)nnc21 [I-BET-762]; conditions: top dose 20 µM; top dose inferred
Description: as §1

AV-951 = compound: COc1cc2nccc(Oc3ccc(NC(=O)Nc4cc(C)on4)c(Cl)c3)c2cc1OC [AV-951]; conditions: top dose 0.128 µM; top dose inferred
Description: as §1

HG-6-64-1 = compound: CCN1CCN(Cc2ccc(NC(=O)c3ccc(C)c(/C=C/c4cnc5[nH]ccc5c4OC)c3)cc2C(F)(F)F)CC1 [HG-6-64-1]; conditions: top dose 5.12 µM; top dose inferred
Description: as §1

| Cell Line | AUC (Trametinib) | IC50 (Trametinib) | AUC (PF-4708671) | IC50 (PF-4708671) | AUC (KIN001-244) | IC50 (KIN001-244) | AUC (I-BET-762) | IC50 (I-BET-762) | AUC (AV-951) | IC50 (AV-951) | AUC (HG-6-64-1) | IC50 (HG-6-64-1) |
| --- | --- | --- | --- | --- | --- | --- | --- | --- | --- | --- | --- | --- |
| PL18 (pancreas, adherent) | 0.083 | < 0.00391 µM | 0.901 | > 10 µM | 0.932 | > 20 µM | 0.78 | 8.17 µM | 0.986 | > 0.128 µM | 0.869 | 4.64 µM |
| RCM-1 (large intestine, adherent) | 0.268 | 0.0116 µM | 0.926 | > 10 µM | 0.979 | > 20 µM | 0.985 | > 20 µM | 0.984 | > 0.128 µM | 0.957 | > 5.12 µM |
| RD (rhabdomyosarcoma, adherent) | 0.204 | 0.00753 µM | 0.968 | > 10 µM | 0.817 | 12.5 µM | 0.83 | 14.2 µM | 0.985 | > 0.128 µM | 0.761 | 1.99 µM |
| RERF-GC-1B (stomach, adherent) | 0.651 | 0.173 µM | 0.973 | > 10 µM | 0.835 | 15.4 µM | 0.933 | > 20 µM | 0.968 | > 0.128 µM | 0.647 | 0.862 µM |
| RERF-LC-KJ (lung adenocarcinoma, adherent) | 0.943 | > 1 µM | 0.987 | > 10 µM | 0.923 | > 20 µM | 0.967 | > 20 µM | 0.987 | > 0.128 µM | 0.955 | > 5.12 µM |
| RERF-LC-MS (lung adenocarcinoma, adherent) | 0.587 | 0.109 µM | 0.905 | > 10 µM | 0.894 | > 20 µM | 0.977 | > 20 µM | 0.985 | > 0.128 µM | 0.937 | > 5.12 µM |
| RERF-LC-Sq1 (lung squamous cell carcinoma, adherent) | 0.637 |  | 0.884 | > 10 µM | 0.911 | > 20 µM | 0.968 | > 20 µM | 0.97 | > 0.128 µM | 0.97 | > 5.12 µM |
| RKN (ovary, adherent) | 0.157 | 0.00509 µM | 0.979 | > 10 µM | 0.877 | > 20 µM | 0.904 | > 20 µM | 0.981 | > 0.128 µM | 0.922 | > 5.12 µM |
| RO82-W-1 (thyroid, adherent) | 0.589 | 0.117 µM | 0.951 | > 10 µM | 0.885 | > 20 µM | 0.953 | > 20 µM | 0.976 | > 0.128 µM | 0.765 | 2.39 µM |
| RPMI-2650 (head and neck, adherent) | 0.922 | > 1 µM | 0.976 | > 10 µM | 0.851 | 17.3 µM | 0.92 | > 20 µM | 0.979 | > 0.128 µM | 0.442 | 0.22 µM |
| RT4 (bladder, adherent) | 0.622 | 0.138 µM | 0.986 | > 10 µM | 0.857 | 17.7 µM | 0.935 | > 20 µM | 0.981 | > 0.128 µM | 0.706 | 1.26 µM |
| RT-112 (bladder, adherent) | 0.783 | 0.456 µM | 0.977 | > 10 µM | 0.825 | 13.2 µM | 0.982 | > 20 µM | 0.97 | > 0.128 µM | 0.593 | 0.586 µM |
| RVH-421 (melanoma, adherent) | 0.398 | 0.0296 µM | 0.964 | > 10 µM | 0.704 | 5.87 µM | 0.868 | > 20 µM | 0.968 | > 0.128 µM | 0.752 | 2.27 µM |
| SAS (head and neck, adherent) | 0.45 | 0.045 µM | 0.887 | > 10 µM | 0.845 | 16.9 µM | 0.91 | > 20 µM | 0.984 | > 0.128 µM | 0.924 | > 5.12 µM |
| SAT (head and neck, adherent) | 0.4 | 0.0285 µM | 0.818 | > 10 µM | 0.866 | > 20 µM | 0.875 | > 20 µM | 0.973 | > 0.128 µM | 0.864 | > 5.12 µM |
| SBC-5 (small cell lung carcinoma, adherent) | 0.947 | > 1 µM | 0.953 | > 10 µM | 0.963 | > 20 µM | 0.993 | > 20 µM | 0.993 | > 0.128 µM | 0.854 | 2.92 µM |
| SCC-4 (head and neck, adherent) | 0.778 | 0.482 µM | 0.899 | > 10 µM | 0.936 | > 20 µM | 0.966 | > 20 µM | 0.984 | > 0.128 µM | 0.83 | 4.08 µM |
| SCC-9 (head and neck, adherent) | 0.415 | 0.0343 µM | 0.937 | > 10 µM | 0.81 | 14.3 µM | 0.933 | > 20 µM | 0.969 | > 0.128 µM | 0.674 | 1.13 µM |
